Experimental data as given in publication PMC3898904.
Results are given in words; binding and its absence hold for the method and conditions named. For some assays here: In cells and extracts the contact can be indirect. Some binding calls cover weakened binding; strength is not graded here. Where a sequence is shown, tags or fusion partners need not be part of it. Values belong to the molecule of their own block, whether it stands above or below them.

Amino acid sequences for entries named in this document (tags omitted).
UniProt Q94A79: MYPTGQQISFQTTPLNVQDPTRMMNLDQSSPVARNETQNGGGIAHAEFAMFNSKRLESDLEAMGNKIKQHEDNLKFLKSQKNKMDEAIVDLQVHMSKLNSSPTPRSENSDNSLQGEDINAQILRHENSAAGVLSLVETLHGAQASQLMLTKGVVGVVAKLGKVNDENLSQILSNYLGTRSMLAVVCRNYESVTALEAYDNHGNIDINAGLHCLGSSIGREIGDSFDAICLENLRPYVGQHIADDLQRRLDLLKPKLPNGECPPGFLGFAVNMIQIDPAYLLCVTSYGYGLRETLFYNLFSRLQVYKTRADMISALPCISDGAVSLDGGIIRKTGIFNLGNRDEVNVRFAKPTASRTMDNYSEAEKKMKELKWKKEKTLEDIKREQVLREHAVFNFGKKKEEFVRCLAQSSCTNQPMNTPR

Key:
[1] = molecular target: T1, SUVH2-3xMyc (Arabidopsis thaliana) (UniProt O22781); experiment: co-IP; protein extracts of transgenic plants incubated with agarose-conjugated antibodies in Lysis buffer at 4°C for 2-3 h, four washes, Western blotting
T1 sequence: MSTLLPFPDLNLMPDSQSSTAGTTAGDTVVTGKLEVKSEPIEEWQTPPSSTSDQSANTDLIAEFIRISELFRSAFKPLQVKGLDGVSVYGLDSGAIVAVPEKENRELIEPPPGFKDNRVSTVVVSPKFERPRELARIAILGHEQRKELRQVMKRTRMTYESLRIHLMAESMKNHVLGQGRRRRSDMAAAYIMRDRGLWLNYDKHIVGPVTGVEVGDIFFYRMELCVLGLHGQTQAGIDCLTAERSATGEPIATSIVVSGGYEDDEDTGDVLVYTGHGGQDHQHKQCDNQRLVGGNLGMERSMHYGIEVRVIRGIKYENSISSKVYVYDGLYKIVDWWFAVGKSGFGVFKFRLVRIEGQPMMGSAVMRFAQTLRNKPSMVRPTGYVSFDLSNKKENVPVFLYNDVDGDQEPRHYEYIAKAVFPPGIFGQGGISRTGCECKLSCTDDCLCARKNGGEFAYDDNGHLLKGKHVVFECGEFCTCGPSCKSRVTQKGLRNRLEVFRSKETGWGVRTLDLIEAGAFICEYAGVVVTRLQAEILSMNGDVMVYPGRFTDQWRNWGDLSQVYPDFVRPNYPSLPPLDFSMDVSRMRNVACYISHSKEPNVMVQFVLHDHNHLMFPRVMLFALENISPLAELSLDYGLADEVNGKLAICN

[2] = molecular target: T2, MORC1-3xFlag (Arabidopsis thaliana) (UniProt Q84WV6); experiment: as above
T2 sequence: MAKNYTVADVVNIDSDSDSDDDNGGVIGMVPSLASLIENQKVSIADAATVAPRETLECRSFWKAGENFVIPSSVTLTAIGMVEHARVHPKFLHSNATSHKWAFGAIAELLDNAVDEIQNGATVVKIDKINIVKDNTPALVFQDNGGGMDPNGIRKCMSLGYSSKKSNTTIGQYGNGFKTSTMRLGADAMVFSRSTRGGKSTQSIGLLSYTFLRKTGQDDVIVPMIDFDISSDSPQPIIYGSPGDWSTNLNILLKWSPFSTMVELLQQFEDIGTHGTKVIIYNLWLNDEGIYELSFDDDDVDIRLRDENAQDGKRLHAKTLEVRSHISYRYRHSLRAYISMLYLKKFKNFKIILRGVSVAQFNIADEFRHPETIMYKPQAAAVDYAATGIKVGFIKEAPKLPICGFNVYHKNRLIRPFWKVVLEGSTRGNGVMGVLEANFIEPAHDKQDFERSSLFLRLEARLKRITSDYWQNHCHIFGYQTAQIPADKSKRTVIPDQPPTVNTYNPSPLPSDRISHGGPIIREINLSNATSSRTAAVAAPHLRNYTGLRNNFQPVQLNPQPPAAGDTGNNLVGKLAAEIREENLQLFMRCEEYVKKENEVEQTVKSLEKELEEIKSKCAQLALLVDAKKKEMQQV

[3] = molecular target: T3, SUVH9-3xFlag (Arabidopsis thaliana) (UniProt Q9T0G7); experiment: as above
T3 sequence: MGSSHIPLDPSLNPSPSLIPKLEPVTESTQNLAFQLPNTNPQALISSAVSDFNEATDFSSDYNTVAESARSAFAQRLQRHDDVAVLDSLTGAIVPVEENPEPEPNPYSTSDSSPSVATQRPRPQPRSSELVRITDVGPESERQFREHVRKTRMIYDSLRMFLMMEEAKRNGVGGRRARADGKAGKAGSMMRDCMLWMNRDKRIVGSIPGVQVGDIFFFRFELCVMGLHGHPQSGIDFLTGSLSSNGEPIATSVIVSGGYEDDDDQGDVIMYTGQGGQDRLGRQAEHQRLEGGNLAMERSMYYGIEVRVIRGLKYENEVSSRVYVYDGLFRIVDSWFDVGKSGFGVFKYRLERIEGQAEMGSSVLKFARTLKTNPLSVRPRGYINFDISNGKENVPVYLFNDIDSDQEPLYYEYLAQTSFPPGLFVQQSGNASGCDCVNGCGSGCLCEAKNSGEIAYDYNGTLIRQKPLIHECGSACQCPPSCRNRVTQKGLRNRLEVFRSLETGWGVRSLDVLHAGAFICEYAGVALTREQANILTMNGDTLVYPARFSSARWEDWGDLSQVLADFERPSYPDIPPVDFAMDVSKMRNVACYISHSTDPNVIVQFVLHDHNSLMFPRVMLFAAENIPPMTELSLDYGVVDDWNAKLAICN

[4] = molecular target: T4, MORC6 (yeast two-hybrid fusion) (Arabidopsis thaliana) (UniProt Q56Y74); experiment: two-hybrid; GAL4-AD (pGADT7) and GAL4-BD (pGBKT7) fusions in yeast strain PJ694a; growth on SD-TLH, 20 mM 3-AT
T4 sequence: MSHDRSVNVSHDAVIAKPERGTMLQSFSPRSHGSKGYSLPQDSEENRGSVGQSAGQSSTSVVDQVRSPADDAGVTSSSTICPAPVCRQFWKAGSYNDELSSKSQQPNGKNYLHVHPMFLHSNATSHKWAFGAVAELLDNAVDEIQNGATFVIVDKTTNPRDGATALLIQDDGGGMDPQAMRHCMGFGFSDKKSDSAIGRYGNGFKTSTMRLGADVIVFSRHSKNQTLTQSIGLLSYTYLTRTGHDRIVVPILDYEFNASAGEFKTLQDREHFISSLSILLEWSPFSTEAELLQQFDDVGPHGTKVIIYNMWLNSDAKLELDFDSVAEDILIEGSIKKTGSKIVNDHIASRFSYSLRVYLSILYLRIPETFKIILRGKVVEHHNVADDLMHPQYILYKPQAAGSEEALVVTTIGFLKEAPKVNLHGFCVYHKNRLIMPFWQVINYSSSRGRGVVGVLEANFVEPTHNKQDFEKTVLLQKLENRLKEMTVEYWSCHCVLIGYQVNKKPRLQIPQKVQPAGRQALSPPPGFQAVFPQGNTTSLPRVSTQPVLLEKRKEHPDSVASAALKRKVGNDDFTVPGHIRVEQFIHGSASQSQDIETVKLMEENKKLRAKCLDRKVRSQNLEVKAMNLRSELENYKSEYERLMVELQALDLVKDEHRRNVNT

[5] = molecular target: … IN MERISTEM … 3 (DMS3), endogenous (Arabidopsis thaliana (endogenous in plants)) (UniProt Q94A79); experiment: co-IP; protein extracts of transgenic plants incubated with agarose-conjugated antibodies in Lysis buffer at 4°C for 2-3 h, four washes, Western blotting

B1: MORC6-3xMyc (protein, UniProt Q56Y74 1-663)
chain: MSHDRSVNVSHDAVIAKPERGTMLQSFSPRSHGSKGYSLPQDSEENRGSVGQSAGQSSTSVVDQVRSPADDAGVTSSSTICPAPVCRQFWKAGSYNDELSSKSQQPNGKNYLHVHPMFLHSNATSHKWAFGAVAELLDNAVDEIQNGATFVIVDKTTNPRDGATALLIQDDGGGMDPQAMRHCMGFGFSDKKSDSAIGRYGNGFKTSTMRLGADVIVFSRHSKNQTLTQSIGLLSYTYLTRTGHDRIVVPILDYEFNASAGEFKTLQDREHFISSLSILLEWSPFSTEAELLQQFDDVGPHGTKVIIYNMWLNSDAKLELDFDSVAEDILIEGSIKKTGSKIVNDHIASRFSYSLRVYLSILYLRIPETFKIILRGKVVEHHNVADDLMHPQYILYKPQAAGSEEALVVTTIGFLKEAPKVNLHGFCVYHKNRLIMPFWQVINYSSSRGRGVVGVLEANFVEPTHNKQDFEKTVLLQKLENRLKEMTVEYWSCHCVLIGYQVNKKPRLQIPQKVQPAGRQALSPPPGFQAVFPQGNTTSLPRVSTQPVLLEKRKEHPDSVASAALKRKVGNDDFTVPGHIRVEQFIHGSASQSQDIETVKLMEENKKLRAKCLDRKVRSQNLEVKAMNLRSELENYKSEYERLMVELQALDLVKDEHRRNVNT
binding [2]: binds
binding [3]: binds

B3: SUVH2-3xMyc (protein, UniProt O22781 1-651)
chain: MSTLLPFPDLNLMPDSQSSTAGTTAGDTVVTGKLEVKSEPIEEWQTPPSSTSDQSANTDLIAEFIRISELFRSAFKPLQVKGLDGVSVYGLDSGAIVAVPEKENRELIEPPPGFKDNRVSTVVVSPKFERPRELARIAILGHEQRKELRQVMKRTRMTYESLRIHLMAESMKNHVLGQGRRRRSDMAAAYIMRDRGLWLNYDKHIVGPVTGVEVGDIFFYRMELCVLGLHGQTQAGIDCLTAERSATGEPIATSIVVSGGYEDDEDTGDVLVYTGHGGQDHQHKQCDNQRLVGGNLGMERSMHYGIEVRVIRGIKYENSISSKVYVYDGLYKIVDWWFAVGKSGFGVFKFRLVRIEGQPMMGSAVMRFAQTLRNKPSMVRPTGYVSFDLSNKKENVPVFLYNDVDGDQEPRHYEYIAKAVFPPGIFGQGGISRTGCECKLSCTDDCLCARKNGGEFAYDDNGHLLKGKHVVFECGEFCTCGPSCKSRVTQKGLRNRLEVFRSKETGWGVRTLDLIEAGAFICEYAGVVVTRLQAEILSMNGDVMVYPGRFTDQWRNWGDLSQVYPDFVRPNYPSLPPLDFSMDVSRMRNVACYISHSKEPNVMVQFVLHDHNHLMFPRVMLFALENISPLAELSLDYGLADEVNGKLAICN
binding [5]: binds

Results, then the molecule that gave them:

binding [1]: binds
Molecule: … IN MERISTEM … 3 (DMS3), endogenous (from UniProt Q94A79 1-420)

binding [4]: binds
B2: SUVH9 (yeast two-hybrid fusion) (protein, UniProt Q9T0G7 1-650)
chain: MGSSHIPLDPSLNPSPSLIPKLEPVTESTQNLAFQLPNTNPQALISSAVSDFNEATDFSSDYNTVAESARSAFAQRLQRHDDVAVLDSLTGAIVPVEENPEPEPNPYSTSDSSPSVATQRPRPQPRSSELVRITDVGPESERQFREHVRKTRMIYDSLRMFLMMEEAKRNGVGGRRARADGKAGKAGSMMRDCMLWMNRDKRIVGSIPGVQVGDIFFFRFELCVMGLHGHPQSGIDFLTGSLSSNGEPIATSVIVSGGYEDDDDQGDVIMYTGQGGQDRLGRQAEHQRLEGGNLAMERSMYYGIEVRVIRGLKYENEVSSRVYVYDGLFRIVDSWFDVGKSGFGVFKYRLERIEGQAEMGSSVLKFARTLKTNPLSVRPRGYINFDISNGKENVPVYLFNDIDSDQEPLYYEYLAQTSFPPGLFVQQSGNASGCDCVNGCGSGCLCEAKNSGEIAYDYNGTLIRQKPLIHECGSACQCPPSCRNRVTQKGLRNRLEVFRSLETGWGVRSLDVLHAGAFICEYAGVALTREQANILTMNGDTLVYPARFSSARWEDWGDLSQVLADFERPSYPDIPPVDFAMDVSKMRNVACYISHSTDPNVIVQFVLHDHNSLMFPRVMLFAAENIPPMTELSLDYGVVDDWNAKLAICN
